Data from the BET-seq Pho4 binding data (Le et al. 2018).
Some of the results follow. These are noisy estimates, calculated here from bound and input reads.

biological target: T1, Pho4 (S. cerevisiae) (UniProt P07270); experiment: relative binding free energy (BET-seq); higher = weaker binding; details: reference: library average
T1 sequence: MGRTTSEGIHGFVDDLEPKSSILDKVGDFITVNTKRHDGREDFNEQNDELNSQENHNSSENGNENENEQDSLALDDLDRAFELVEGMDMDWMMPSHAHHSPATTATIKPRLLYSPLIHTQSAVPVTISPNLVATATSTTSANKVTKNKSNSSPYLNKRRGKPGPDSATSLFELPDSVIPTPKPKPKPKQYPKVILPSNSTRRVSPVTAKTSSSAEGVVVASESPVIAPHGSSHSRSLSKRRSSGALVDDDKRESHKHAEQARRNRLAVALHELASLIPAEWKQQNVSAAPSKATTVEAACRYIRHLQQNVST

Sequence | relative binding free energy [kcal/mol]
GCTAGCACGTGTGTGG | 0.09
TAATTCACGTGTTAGA | 0.2
GCGTACACGTGTGTGT | 0.08
CATTTCACGTGTGCTT | 0.36
GGGTACACGTGTCGAA | 0.16
CGGGGCACGTGTGGGG | -0.09
AGGGGCACGTGTGTAG | -0.13
AGCGGCACGTGGCGAG | -0.13
GGAAGCACGTGTAAGT | -0.11
TATGGCACGTGGTGAA | -0.09
CAGAGCACGTGAGGTT | 0.26
TTGGTCACGTGGTAAA | 0.12
ATTTGCACGTGTTGAC | 0.09
TAGTTCACGTGCGTAA | 0.31
TGTGCCACGTGTCGGT | -0.08
CGGTTCACGTGTTGGC | 0.4
CTTGACACGTGTGGTG | 0.08
GTTTGCACGTGTGGGA | 0.17
GCAGTCACGTGGGTCG | -0.06
GTGCTCACGTGTTTCG | 0.36
ACTTTCACGTGAGGGG | 0.39
CTGGCCACGTGTGTGT | -0.03
GTGTTCACGTGAGGCT | 0.33

Sequence | relative binding free energy [kcal/mol]
ACTTTCACGTGGGGTC | 0.12
CTAAGCACGTGGGGAT | -0.24
AAAGGCACGTGTAATT | 0
GGAAGCACGTGGGTTT | -0.17
GGGGGCACGTGTCTCG | -0.2
TTGGCCACGTGGGGTA | -0.23
AGTAACACGTGGCAGT | -0.06
TTGGTCACGTGGAGCC | 0.14
GTTAACACGTGTGGCG | 0.11
ATGGTCACGTGATTTC | 0.11
TGTGGCACGTGTGTCG | -0.14
GTGTCCACGTGGGGTG | -0.02
TCTGGCACGTGTGTGG | -0.09
TGGCACACGTGGGGGA | -0.11
GCTGGCACGTGTGGTA | -0.07
TTGCGCACGTGTGTAA | -0.05
GTGTTCACGTGGCCGG | 0.16
TTATGCACGTGCGTTT | -0.11
ATTTTCACGTGCGGAT | 0.29
ATGTGCACGTGGCTCA | -0.02
TTGTACACGTGTTTAG | 0.17
ATGTTCACGTGCGCGT | 0.28
CTTCGCACGTGTTTGG | -0.1

Sequence | relative binding free energy [kcal/mol]
GGACGCACGTGAAGTT | 0.25
AATTGCACGTGCTGTT | 0
GGGAACACGTGTCGTA | 0.19
GTTTGCACGTGTAGTA | 0.13
TGTGCCACGTGTTTTA | -0.04
TTTGCCACGTGAGCGG | 0.06
TTTAGCACGTGAATAT | 0.26
GGTGTCACGTGTCTGC | 0
TAGTACACGTGTTTAT | -0.01
ATCTACACGTGGGTGC | 0.13
TAATGCACGTGGTATG | -0.12
GCGCTCACGTGGTGGT | 0.14
GGCGCCACGTGGTGAG | -0.06
GTTGTCACGTGGTTTT | 0.13
GTGGGCACGTGACGAT | 0.14
GTTTGCACGTGGCCGT | -0.01
GGACTCACGTGTGTTG | 0.32
TGGCACACGTGTAATT | 0.28
TGATTCACGTGGGATA | 0.21
CTCGGCACGTGTAGTG | -0.05
GGGATCACGTGTATGT | 0.2
CTCTTCACGTGGGGTG | 0.14
CGCAGCACGTGGAAGG | 0.08

Sequence | relative binding free energy [kcal/mol]
TAGGACACGTGTAAGA | 0.36
GGTAGCACGTGGTATT | -0.15
TTATACACGTGTGAAA | 0.03
ACTTGCACGTGGGTGA | -0.06
ATAAACACGTGTAGGT | 0
GGATGCACGTGTTGTG | 0.02
TCGTGCACGTGCGGTT | 0.05
CTGTGCACGTGGGTTC | -0.17
GGGGGCACGTGATAGC | 0.13
ATTCACACGTGTGTGT | 0.07
TTCTTCACGTGCGTTA | 0.15
TGTATCACGTGCTTAG | -0.08
GTGGTCACGTGATCGA | 0.2
GTGCTCACGTGGGAGT | 0.18
TGGAACACGTGATTTT | 0.22
ATTCTCACGTGTTTTT | 0.15
TGAATCACGTGAGGAA | 0.4
GTTTACACGTGTGAGT | 0.2
AGTTGCACGTGTAGAA | -0.01
CGTGACACGTGGGGGG | -0.19
AACGTCACGTGGTAGT | 0.22
TGATTCACGTGATGTA | 0.32
CCGTTCACGTGGTATT | 0.29

Sequence | relative binding free energy [kcal/mol]
TGGTTCACGTGGTTAG | 0.26
CGTTGCACGTGTTAGG | 0.04
TTGGTCACGTGCTGTT | -0.04
AATGGCACGTGGTGCA | -0.16
GTTGTCACGTGATGAC | 0.29
CGGCGCACGTGGGGGT | -0.18
CGCTGCACGTGGTTGG | 0
GGGCGCACGTGTTTGT | -0.04
CGGTTCACGTGCAGTG | 0.33
GATTGCACGTGGATTT | 0.07
GATTGCACGTGGGTCG | -0.16
ATAGTCACGTGTATGT | 0.05
GTGATCACGTGAGATT | 0.35
TGATTCACGTGGTGTT | 0.2
AGGGGCACGTGCACAG | -0.07
AAGGACACGTGAGGGA | 0.29
TGGGTCACGTGGTCTT | 0.01
TGTCGCACGTGGACGG | 0.07
TGCTTCACGTGCTTTT | 0.24
CATGACACGTGTGTGA | 0.14
AATTTCACGTGAATGT | 0.34
ATTACCACGTGTGTGA | -0.02
ATATGCACGTGACGTG | 0.01
